Data published in publication PMC6602471.
The list shows a part of the results. At the low end of the ranking, values are background and their order means little.

target: T1, ETS1 (UniProt P14921); test: custom PBM; conditions: custom protein-binding microarray; buffer, salt, pH and temperature not stated; high values mean tight binding; double strand, one strand shown
T1 sequence: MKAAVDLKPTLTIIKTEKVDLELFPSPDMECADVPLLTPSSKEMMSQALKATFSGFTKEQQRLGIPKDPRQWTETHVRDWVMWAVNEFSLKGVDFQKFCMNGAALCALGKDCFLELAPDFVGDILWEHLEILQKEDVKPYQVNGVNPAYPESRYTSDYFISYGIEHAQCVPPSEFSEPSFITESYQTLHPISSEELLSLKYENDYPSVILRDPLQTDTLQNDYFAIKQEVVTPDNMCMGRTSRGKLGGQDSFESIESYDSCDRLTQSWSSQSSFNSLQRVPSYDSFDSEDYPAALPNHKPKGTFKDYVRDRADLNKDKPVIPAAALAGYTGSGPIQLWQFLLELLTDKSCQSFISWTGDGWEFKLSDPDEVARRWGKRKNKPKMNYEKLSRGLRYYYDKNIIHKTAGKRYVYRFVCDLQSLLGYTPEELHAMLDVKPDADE

Sequence | binding signal (log fluorescence intensity)
CAGCATAGTACTTCTTCCCTGAAGCAATTGATAACCGTCTTGATTCGCTTGACGCTGCTG | 8.23
CTGGGACTTGACCCAACTCTGCCACGCGGGTCGTTTGTCTTGATTCGCTTGACGCTGCTG | 8.26
CAGCATAGGCCTTCTTCCCTGAAGCAATTGATAACCGTCTTGATTCGCTTGACGCTGCTG | 8.15
TCCGGCTACCAGTTCCACCCACTTCAGGCCTTGTAGGTCTTGATTCGCTTGACGCTGCTG | 8.32
CGGAAGTGTCGTAAACGGCGGATATCCGGTTCTTCTGTCTTGATTCGCTTGACGCTGCTG | 12.4
TCCGGCTACCAGCTCCACCCACTTCGGGCCTTGTAGGTCTTGATTCGCTTGACGCTGCTG | 8.02
TAGCATAGGACTTCTTCCCTGAAGCAATTGATAACCGTCTTGATTCGCTTGACGCTGCTG | 8.12
CGGAAGTGTCGTAATCGTCGGATATCCGGTTCTTCTGTCTTGATTCGCTTGACGCTGCTG | 11.8
CACAATTTTTACAGTAATGTAGCAAGCGTAACTCCTGTCTTGATTCGCTTGACGCTGCTG | 8.17
CACAATTTTTACAGTGATGTAGCACGCGTAACTCCTGTCTTGATTCGCTTGACGCTGCTG | 8.31
CGGAAGTGTCGTAAACGTCGGATAGCCGGTTCTTCTGTCTTGATTCGCTTGACGCTGCTG | 8.18
GTGTATCGGATCCCATCCAACACACGTGTTAAAATGGTCTTGATTCGCTTGACGCTGCTG | 8.32
TACAATTTTTACAGTAATGTAGCACGCGTAACTCCTGTCTTGATTCGCTTGACGCTGCTG | 8.23
TCCGGCTACCAGCGCCACCCACTTCAGGCCTTGTAGGTCTTGATTCGCTTGACGCTGCTG | 8.26
CAGCATAGGACTTCTCCCCTGAAGCAATTGATAACCGTCTTGATTCGCTTGACGCTGCTG | 8.24
GATTAATTTCTGCCCTTAATCGCACGTGCCATAACAGTCTTGATTCGCTTGACGCTGCTG | 8.13
GCTGTTGCGGTGCATACCCCACCGGATGTGACCCCGGTCTTGATTCGCTTGACGCTGCTG | 10.3
CTGGGACTTGTCCCAACTCTGCCACGTGGGTCGTTTGTCTTGATTCGCTTGACGCTGCTG | 8.25
TCCGGCTACCAGCTCCACCCATTTCAGGCCTTGTAGGTCTTGATTCGCTTGACGCTGCTG | 8.26
TACTGACTTATATATGCGAATGCACATGAATAGACTGTCTTGATTCGCTTGACGCTGCTG | 8.24
GGAAAAACGCCCAGGGTAACACCGGAAGTGGGCTTAGTCTTGATTCGCTTGACGCTGCTG | 12.1

Sequence | binding signal (log fluorescence intensity)
CTGTGACTTGACCCAACTCTGCCACGTGGGTCGTTTGTCTTGATTCGCTTGACGCTGCTG | 8.31
GGAAAAAGGCCCAGGGTAACAGCGGAAGTGGGCTTAGTCTTGATTCGCTTGACGCTGCTG | 10.2
TCCGGCTACCAGCTCGACCCACTTCAGGCCTTGTAGGTCTTGATTCGCTTGACGCTGCTG | 8.17
GCTGCCGCGGTGCATACCCCACCGGATGTGACCCCGGTCTTGATTCGCTTGACGCTGCTG | 10.7
GTGTATAGGAGCCCATCCAACACACGTGTTAAAATGGTCTTGATTCGCTTGACGCTGCTG | 8.2
TGTCGGGTAAGTGAATGTAGATCACGTGAATGAAAAGTCTTGATTCGCTTGACGCTGCTG | 8.14
GTGTATAGGATCCCATCCAACGCACGTGTTAAAATGGTCTTGATTCGCTTGACGCTGCTG | 8.28
GATTAATTTCTGCCCTTATTCACACGTGCCATAACAGTCTTGATTCGCTTGACGCTGCTG | 8.22
TCCGGCTACCCGCTCCACCCACTTCAGGCCTTGTAGGTCTTGATTCGCTTGACGCTGCTG | 8.11
CATAATTTTTACAGTAATGTAGCACGCGTAACTCCTGTCTTGATTCGCTTGACGCTGCTG | 8.23
TCCGGCTACCAGCTCCACCCACTTCAGGCTTTGTAGGTCTTGATTCGCTTGACGCTGCTG | 8.22
TCCGGCTACCAGCTCCACGCACTTCAGGCCTTGTAGGTCTTGATTCGCTTGACGCTGCTG | 8.13
TCCGGCTACCATCTCCACCCACTTCAGGCCTTGTAGGTCTTGATTCGCTTGACGCTGCTG | 8.2
CTGGGACTTGACCCAACCCTGCCACGTGGGTCGTTTGTCTTGATTCGCTTGACGCTGCTG | 8.32
CGGAAGTGTCGTAAACGTCGGATTTCCGGTTCTTCTGTCTTGATTCGCTTGACGCTGCTG | 12.5
TAAAGGGAAGACGGTTGTGGTAGTTCCGGGTGTTAAGTCTTGATTCGCTTGACGCTGCTG | 8.6
GCTGCTGTGGTGCATACCCCACCGGATGTGACCCCGGTCTTGATTCGCTTGACGCTGCTG | 10.3
CGGAAGTGTCGTAAACGTCGGATATCCGGTTCTTATGTCTTGATTCGCTTGACGCTGCTG | 11.9
GGAAAAAGGCCCAGGGTAACACCGGAAGTTGGCTTAGTCTTGATTCGCTTGACGCTGCTG | 11.6
CAGCATACGACTTCTTCCCTGAAGCAATTGATAACCGTCTTGATTCGCTTGACGCTGCTG | 8.26
CACAATTTTTACAGTAATGTAGCACGCGTAACACCTGTCTTGATTCGCTTGACGCTGCTG | 8.23

Sequence | binding signal (log fluorescence intensity)
CACAAGTTTTACAGTAATGTAGCACGCGTAACTCCTGTCTTGATTCGCTTGACGCTGCTG | 8.13
CAGCATAGGACTTCTTCCCTGAAGCAATTAATAACCGTCTTGATTCGCTTGACGCTGCTG | 8.26
TCCGGCTACCAGCTCCACCAACTTCAGGCCTTGTAGGTCTTGATTCGCTTGACGCTGCTG | 8.2
CACAATTGTTACAGTAATGTAGCACGCGTAACTCCTGTCTTGATTCGCTTGACGCTGCTG | 8.19
GATTAATTTCTGCCCTTATTCGCACGTGCTATAACAGTCTTGATTCGCTTGACGCTGCTG | 8.21
CAGCATAGGACTTCTTCCCTGAAGCAAATGATAACCGTCTTGATTCGCTTGACGCTGCTG | 8.15
TCCGGCTACCAGCTCCACCCACTTCAGGCCTGGTAGGTCTTGATTCGCTTGACGCTGCTG | 8.19
CGGAAGTGTCGTAAACGTCGGATATCCAGTTCTTCTGTCTTGATTCGCTTGACGCTGCTG | 8.64
TACTGACTTATAAATGCGAATGCACATGAATAGACCGTCTTGATTCGCTTGACGCTGCTG | 8.13
GTGTATAGGATCCCATCCAACACACGAGTTAAAATGGTCTTGATTCGCTTGACGCTGCTG | 8.08
TCCGGCTACCAGCTCCATCCACTTCAGGCCTTGTAGGTCTTGATTCGCTTGACGCTGCTG | 8.24
CAGCATAGGGCTTCTTCCCTGAAGCAATTGATAACCGTCTTGATTCGCTTGACGCTGCTG | 8.25
GCTGCTGCGGTGCATACCCCACCGGACGTGACCCCGGTCTTGATTCGCTTGACGCTGCTG | 8.55
CACAATTATTACAGTAATGTAGCACGCGTAACTCCTGTCTTGATTCGCTTGACGCTGCTG | 8.22
TACTGACTTATATATGCGAATGCACATCAATAGACCGTCTTGATTCGCTTGACGCTGCTG | 8.32
GGAAAAAGGCCCAGGGTAACACCGGAATTGGGCTTAGTCTTGATTCGCTTGACGCTGCTG | 8.27
GCTGCTGCGGTGCATACCCCACCGGATGTGTCCCCGGTCTTGATTCGCTTGACGCTGCTG | 9.62
CGGAAGTGGCGTAAACGTCGGATATCCGGTTCTTCTGTCTTGATTCGCTTGACGCTGCTG | 11.7
GTGTATAGGATCCCATCCAACACACGTGTTAAAACGGTCTTGATTCGCTTGACGCTGCTG | 8.25
CTGGGACTTGACCCAACTCTGCCACGTGGGGCGTTTGTCTTGATTCGCTTGACGCTGCTG | 8.16
TAAAGGGAAGTCGGTTGTGGTAGTTCCGGGTATTAAGTCTTGATTCGCTTGACGCTGCTG | 9.66

Sequence | binding signal (log fluorescence intensity)
TTCGGCTACCAGCTCCACCCACTTCAGGCCTTGTAGGTCTTGATTCGCTTGACGCTGCTG | 8.14
TAAAGGGAAGCCGGTTGTGGTAGTTCCGGGTATTAAGTCTTGATTCGCTTGACGCTGCTG | 8.87
GCTGCTGCGGTGCATACCCCAGCGGATGTGACCCCGGTCTTGATTCGCTTGACGCTGCTG | 8.5
CACAATTTTTTCAGTAATGTAGCACGCGTAACTCCTGTCTTGATTCGCTTGACGCTGCTG | 8.14
GATTAATATCTGCCCTTATTCGCACGTGCCATAACAGTCTTGATTCGCTTGACGCTGCTG | 8.16
GTGTATAGGATCCCATCCAACACACGTGTTATAATGGTCTTGATTCGCTTGACGCTGCTG | 8.23
CACAATTTTTACAGTAATGTAGCACGCGTAACTCGTGTCTTGATTCGCTTGACGCTGCTG | 8.15
TACTGACTTATATATGCGAATGCACATGGATAGACCGTCTTGATTCGCTTGACGCTGCTG | 8.36
CGGAAGTGTCGTAAAGGTCGGATATCCGGTTCTTCTGTCTTGATTCGCTTGACGCTGCTG | 11.8
GTGTATAGGATCCCATCTAACACACGTGTTAAAATGGTCTTGATTCGCTTGACGCTGCTG | 8.21
TAAAGGGAGGACGGTTGTGGTAGTTCCGGGTATTAAGTCTTGATTCGCTTGACGCTGCTG | 8.36
TGTCGGGTAATGGAATGTAGATCACGTGAATGAAAAGTCTTGATTCGCTTGACGCTGCTG | 8.17
TACTGACTTATATATGCGAATGCACATGAATAGTCCGTCTTGATTCGCTTGACGCTGCTG | 8.18
TAAAGGGAAGACGGTTGTGGTAGATCCGGGTATTAAGTCTTGATTCGCTTGACGCTGCTG | 8.33
GGAAAAAGGCCCAGGGTAACACCTGAAGTGGGCTTAGTCTTGATTCGCTTGACGCTGCTG | 8.36
CAGCATAGGACTTCATCCCTGAAGCAATTGATAACCGTCTTGATTCGCTTGACGCTGCTG | 8.2
TAAAGGGAAGACGGTTGTGGTAGTTCCGGGTTTTAAGTCTTGATTCGCTTGACGCTGCTG | 8.53
TCCGGCTACCAGCTCCAACCACTTCAGGCCTTGTAGGTCTTGATTCGCTTGACGCTGCTG | 8.36
